Results: patent US20250161476A1 (REGENERON PHARMACEUTICALS, INC., priority 2020, published 2025)
Marks after values point to notes of the source that are not given here.

B1: Anti-GLP1R mAb4-LP11 (conjugate)
heavy: QVQLVESGGGVVQPARSLRLSCAASGFAFSRSAMHWVRQAPGKGLEWVAVISYDGSNKYYTDSVKGRFTISRDNSKNTLYLQMNTLRAEDTALYYCAKMYTTMDSFDYWGQGTLVTVSSASTKGPSVFPLAPCSRSTSESTAALGCLVKDYFPEPVTVSWNSGALTSGVHTFPAVLQSSGLYSLSSVVTVPSSSLGTKTYTCNVDHKPSNTKVDKRV[letters of human IgG4 Fc with S228P (EU numbers) not shown]
light: LLQGSGDIQLTQSPSFLSASVGDRVTITCWASQGISSYLAWYQQKPGKAPKLLIYAASTLQSGVPSRFSGSGSGTEFTLTISSLQPEDFALYYCQQLNSYPRTFGQGTKVEIKRTVAAPSVFIFPPSDEQLKSGTASVVCLLNNFYPREAKVQWKVDNALQSGNSQESVTEQDSKDSTYSLSSTLTLSKADYEKHKVYACEVTHQGLSSPVTKSFNRGEC
B2: Anti-GLP1R mAb3-LP11 (conjugate)
heavy: [letters of about 100 residues not shown]GLIAPRPMGFDYWGQGTLVTVSSASTKGPSVFPLAPCSRSTSESTAALGCLVKDYFPEPVTVSWNSGALTSGVHTFPAVLQSSGLYSLSSVVTVPSSSLGTKTYTCNVDHKPSNTKVDKRV[letters of human IgG4 Fc with S228P (EU numbers) not shown]
light: LLQGSGDIQMTQSPSSVSASVGDRVTITCRASQGINSWLAWYQQKPGKAPKLLIYAASSLQSGVPSRFSGSGSGTDFTLTISSLQPEDFATYYCHQADSFPYTFGQGTKLEIKRTVAAPSVFIFPPSDEQLKSGTASVVCLLNNFYPREAKVQWKVDNALQSGNSQESVTEQDSKDSTYSLSSTLTLSKADYEKHKVYACEVTHQGLSSPVTKSFNRGEC

Experiments:
[1] = tested on: obese GLP1R humanized mice; assay: Body weight in diet-induced obese GLP1R humanized mice; assay type: in vivo, mouse; settings: single 25 mg/kg subcutaneous
From the text: (§1) To determine body weight and blood glucose lowering effects of three anti-GLP1R antibody-tethered-drug conjugates (ATDCs) in obese animals, mice homozygous for the expression of human GLP1R in place of mouse GLP1R (referred to as GLP1R humanized mice) were placed on high-fat diet (60% kcal % fat) for 6 months. Forty-four, 9-month-old male, GLP1R humanized mice were stratified into six groups of five to eight mice, based on their day 0 body weights. After the stratification, each group was subcutaneously administered with 25 mg/kg of COMP anti-GLP1R mAb1-LP4 (n=8), anti-GLP1R mAb3-LP11 (n=8), anti-GLP1R mAb4-LP11 (n=5), control anti-GLP1R mAb (n=7), isotype control mAb ATDC (n=8) or reference compound (n=8) on day 0.
(§2) The control anti-GLP1R mAb is antibody 5A10 described in US Publication No. US20060275288A1, which is incorporated herein by reference in its entirety. […] COMP anti-GLP1R mAb1-LP4 comprises the same control anti-GLP1R mAb with a N-terminal heavy chain Q-tag.
(§3) On days three and seven post administration and weekly from day fourteen to day fifty-six, body weights of the animals were recorded, and their blood glucose levels were measured with a handheld glucometer. Mean±SEM of percent changes in body weight from day 0 at each time point was calculated for each group and are shown in Table 14. Statistical analyses were performed by two-way ANOVA followed by Bonferroni post-hoc tests, comparing the control antibody group to the other five groups.

[2] = tested on: obese GLP1R humanized mice; assay: Blood glucose in diet-induced obese GLP1R humanized mice; assay type: in vivo, mouse; settings: single 25 mg/kg subcutaneous
From the text: as §1, §2, §3

Molecule | percent body weight change from day 0, Mean ([1]; day 0) [%] | percent body weight change from day 0, Mean ([1]; day 3) [%] | percent body weight change from day 0, Mean ([1]; day 7) | percent body weight change from day 0, Mean ([1]; day 14) | percent body weight change from day 0, Mean ([1]; day 20) | percent body weight change from day 0, Mean ([1]; day 28) | percent body weight change from day 0, Mean ([1]; day 35) | percent body weight change from day 0, Mean ([1]; day 42) | percent body weight change from day 0, Mean ([1]; day 49) | percent body weight change from day 0, Mean ([1]; day 56) | blood glucose level, Mean ([2]; day 0) | blood glucose level, Mean ([2]; day 3) | blood glucose level, Mean ([2]; day 7) | blood glucose level, Mean ([2]; day 14) | blood glucose level, Mean ([2]; day 20) | blood glucose level, Mean ([2]; day 28) | blood glucose level, Mean ([2]; day 35) | blood glucose level, Mean ([2]; day 42) | blood glucose level, Mean ([2]; day 49) | blood glucose level, Mean ([2]; day 56)
B1 | 0 | −8.3 | −11.3* % | −13.2** % | −10.9* % | −8.9* % | −7.2% | −4.3% | −3.1% | −2.6% | 221 | 143*** | 155* | 178 | 205 | 188 | 222 | 224 | 226 | 229
B2 | 0 | −7.8 | −11.3** % | −15.9**** % | −15.4**** % | −13.0**** % | −13.0**** % | −12.6**** % | −12.1*** % | −13.2**** % | 209 | 157** | 154* | 162 | 184 | 190 | 200 | 196 | 214 | 204
